This test concerns the target T1, GST-tagged ATP6V0D2 (UniProt Q8N8Y2).
T1 construct: ATP6V0D2, ATPase H+ transporting V0 subunit d2; Construct bought from Tsingke Biotechnology; also called GST-ATP6V0D2; source: BL21 (Rosetta) bacterial cells, purified (glutathione-Sepharose beads)
The test is described as follows: pull-down; GST-tagged protein (2.5 ug) immobilised on glutathione-Sepharose beads, incubated with His-RAB7, His-VPS41 or both in affinity-isolation buffer with PMSF; western blot. The settings on record: both partners purified. (In general: In western blotting, separated proteins are transferred to a membrane and probed.)

B1: His-RAB7 (recombinant, bacterial) (natural protein)
chain: not shown
notes: RAB7; The only His-RAB7 plasmid that the methods name is in the vector pGMLV; source: BL21 (Rosetta) bacterial cells, purified (His beads)
Turning to B1, the binding result is reported as “binds”.

The record behind these values is PMC11849937, “Atractylenolide I inhibits angiogenesis and reverses sunitinib resistance in clear cell renal cell carcinoma through ATP6V0D2-mediated autophagic degradation of EPAS1/HIF2α” (Autophagy, 2024).
